According to publication PMC4918322, “The chromatin remodeller RSF1 is essential for PLK1 deposition and function at mitotic kinetochores” (Nature Communications, 2015):

Target: T1, recombinant V5-tagged full-length RSF1 (human, UniProt Q96T23 1-1441)
T1 construct: RSF1 (remodelling and spacing factor 1), full length; printed both as RSF1-V5 and V5-RSF1, so the end of the tag is open; also called RSF1-V5; V5-RSF1; source: FreeStyle 293-F (HEK293F) cells, secreted into the culture medium, concentrated; purified on anti-V5 Sepharose if necessary
T1 sequence (looked up): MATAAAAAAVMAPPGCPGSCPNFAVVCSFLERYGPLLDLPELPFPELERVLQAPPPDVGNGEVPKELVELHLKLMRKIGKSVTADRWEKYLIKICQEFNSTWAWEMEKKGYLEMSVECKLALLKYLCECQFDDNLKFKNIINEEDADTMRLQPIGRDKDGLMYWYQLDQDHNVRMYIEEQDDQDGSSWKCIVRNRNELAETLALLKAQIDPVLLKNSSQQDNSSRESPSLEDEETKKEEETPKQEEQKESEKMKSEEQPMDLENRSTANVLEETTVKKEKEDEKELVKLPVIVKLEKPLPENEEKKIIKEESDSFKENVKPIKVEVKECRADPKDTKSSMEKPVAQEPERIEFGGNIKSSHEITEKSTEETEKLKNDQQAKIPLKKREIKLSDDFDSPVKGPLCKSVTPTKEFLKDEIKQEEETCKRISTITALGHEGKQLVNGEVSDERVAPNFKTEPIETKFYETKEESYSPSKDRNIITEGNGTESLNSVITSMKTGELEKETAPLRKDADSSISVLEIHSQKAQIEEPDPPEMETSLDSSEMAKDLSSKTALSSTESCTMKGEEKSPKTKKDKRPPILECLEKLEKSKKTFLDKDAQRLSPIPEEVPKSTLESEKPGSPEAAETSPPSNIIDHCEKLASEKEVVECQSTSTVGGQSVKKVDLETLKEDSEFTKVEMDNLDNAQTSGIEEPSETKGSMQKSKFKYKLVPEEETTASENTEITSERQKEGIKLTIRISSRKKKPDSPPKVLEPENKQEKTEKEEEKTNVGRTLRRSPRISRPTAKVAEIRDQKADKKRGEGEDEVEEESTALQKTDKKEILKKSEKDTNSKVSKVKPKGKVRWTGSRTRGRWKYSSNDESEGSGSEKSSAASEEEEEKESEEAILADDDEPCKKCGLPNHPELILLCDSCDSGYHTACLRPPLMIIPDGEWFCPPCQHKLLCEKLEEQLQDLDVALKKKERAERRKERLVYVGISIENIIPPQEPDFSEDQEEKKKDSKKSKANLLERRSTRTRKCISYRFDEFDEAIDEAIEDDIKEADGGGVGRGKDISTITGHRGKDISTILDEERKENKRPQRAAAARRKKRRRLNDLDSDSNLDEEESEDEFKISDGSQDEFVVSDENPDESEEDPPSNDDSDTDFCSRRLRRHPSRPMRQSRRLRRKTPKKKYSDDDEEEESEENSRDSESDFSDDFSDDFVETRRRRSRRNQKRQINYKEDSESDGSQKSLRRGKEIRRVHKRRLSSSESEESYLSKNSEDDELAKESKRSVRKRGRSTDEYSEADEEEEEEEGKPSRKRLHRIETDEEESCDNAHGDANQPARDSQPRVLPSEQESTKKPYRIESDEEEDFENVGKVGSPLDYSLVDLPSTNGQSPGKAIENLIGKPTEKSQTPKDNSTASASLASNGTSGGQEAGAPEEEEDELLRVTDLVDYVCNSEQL
Test: pull-down; in vitro binding assay: Myc-, HA- or Flag-tagged protein immunopurified from mitosis-enriched HEK293T cells and immobilised on beads, incubated with recombinant RSF1-V5 for 2 h at 4 °C; bound RSF1-V5 detected by immunoblotting
Conditions: both partners purified

binding result: binds
B1: Flag-PLK1 kinase-dead mutant (PLK1 K82R) (natural protein)
chain: not shown
notes: Polo-like kinase 1 (PLK1), kinase dead; also called KD; source: mitosis-enriched HEK293T cells, immunopurified

binding result: binds
B2: Flag-PLK1-C ([…]) (domain or fragment)
chain: not shown
notes: PLK1, C terminus with two Polo-box domains, […]; source: mitosis-enriched HEK293T cells, immunopurified

One block for each binder: values may come before it.
